In PubChem BioAssay AID1468 (National Center for Advancing Translational Sciences (NCATS), 2008):
About 1,100 (0.39%) of roughly 280,000 compounds were called active. The inconclusive results got no clear call from the source; some entries with a clear call stand among them for comparison. Calls come from the whole dose curve; as a rule, active = well fitted inhibition curve with a large enough effect; inconclusive = small, poorly fitted or top-dose-only effect, or effect the other way; inactive = flat fitted curve, though single readings scatter. Potencies of inconclusive entries are left out as doubtful fits.

The molecules below were run against Microtubule-associated protein tau (Homo sapiens) (UniProt P10636) (assay: qHTS for Inhibitors of Tau Fibril Formation, Fluorescence Polarization). Conditions: K18 P301L tau heparin fibrillization, Alexa594 FP, 6 h; series mostly up to 57.7 µM; activity, negative = inhibition: at the top concentration.
Procedure, shortened: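 Human tau K18 […] P301L fragment, 15 uM unlabeled plus 0.24 uM Alexa 594-labeled tau (final), with compound and 20 uM heparin in 100 mM sodium acetate pH 7; 6 hr at 37 C, then Alexa 594 FP read.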
% is set by controls: 0 for no effect and ±100 for the full control effect; potency is the fitted concentration of half-maximal effect; tags give direction and shape of the fitted curve.
Note: nearly all actives have a fitted effect of over 55% in size.

Sequence of UniProt P10636 (P10636 whole entry, looked up, the tested form may be a part): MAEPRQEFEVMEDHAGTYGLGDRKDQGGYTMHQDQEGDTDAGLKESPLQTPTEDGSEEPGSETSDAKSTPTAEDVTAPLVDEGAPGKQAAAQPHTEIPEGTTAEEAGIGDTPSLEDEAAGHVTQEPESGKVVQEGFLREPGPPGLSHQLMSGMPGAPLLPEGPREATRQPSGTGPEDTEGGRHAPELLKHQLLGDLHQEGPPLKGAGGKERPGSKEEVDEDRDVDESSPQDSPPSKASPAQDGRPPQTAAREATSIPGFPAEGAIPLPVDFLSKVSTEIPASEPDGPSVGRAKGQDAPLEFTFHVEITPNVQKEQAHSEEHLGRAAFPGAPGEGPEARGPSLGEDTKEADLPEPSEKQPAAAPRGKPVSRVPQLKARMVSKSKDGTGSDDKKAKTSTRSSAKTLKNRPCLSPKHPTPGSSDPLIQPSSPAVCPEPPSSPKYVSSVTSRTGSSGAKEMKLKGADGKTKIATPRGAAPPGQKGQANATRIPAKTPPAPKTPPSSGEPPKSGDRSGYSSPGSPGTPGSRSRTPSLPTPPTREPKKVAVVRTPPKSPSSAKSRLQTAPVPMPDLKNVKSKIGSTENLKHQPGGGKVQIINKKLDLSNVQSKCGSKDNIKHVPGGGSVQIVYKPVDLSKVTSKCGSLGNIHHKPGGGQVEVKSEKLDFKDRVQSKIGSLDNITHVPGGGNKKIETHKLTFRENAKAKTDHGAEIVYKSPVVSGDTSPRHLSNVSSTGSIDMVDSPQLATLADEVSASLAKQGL

Structure (SMILES)	Potency	activity, negative = inhibition
CCN(CC)c1ccc(/C=N/NC(=O)c2cccc(S(=O)(=O)Nc3ccccc3OC)c2)c(O)c1	inconclusive [activator, single point]	
O=C(Cn1cc(C(F)(F)F)cc(Cl)c1=O)Nc1cc(S(=O)(=O)N2CCOCC2)ccc1Cl	inconclusive [inhibitor, single point]	
Cc1ccccc1NS(=O)(=O)c1cc(C(=O)Nc2ccccc2-c2ccccc2)ccc1Cl	inconclusive [inhibitor, partial curve]	
O=C(N/N=C/c1cccs1)c1cccc(NC(=O)c2ccc(Cl)cc2)c1	inconclusive [inhibitor, full curve, poor fit]	
O=C1CCCC2=C1C1(O)C(=O)c3ccccc3C1(O)O2 (centres undefined)	inconclusive [inhibitor, full curve]	
O=C(CSc1nnc2scc(-c3ccc(Cl)cc3)n12)Nc1cccc(C(F)(F)F)c1	inconclusive [inhibitor, partial curve]	
Cc1ccc(NC(=O)Nc2ccc3c(c2)N(C)C(=O)CS3)nc1	inconclusive [activator, partial curve]	
CCOc1ccc(Nc2nc(C)c(NC(=O)c3ccc(C)cc3)c(Nc3ccc(OCC)cc3)n2)cc1	inconclusive [activator, partial curve, poor fit]	
COc1ccc(Cl)cc1NC(=O)c1cnc(SC)nc1-c1ccccc1	inconclusive [inhibitor, single point]	
NS(=O)(=O)c1ccc(N=Nc2ccc(=O)[nH]c2O)cc1		inactive: -22.1%
COc1ccc(NC(=O)C2CCN(S(=O)(=O)c3ccc(OC)c(OC)c3)CC2)c(OC)c1		inactive: 5.28%
CCOC(=O)CCC(=O)Nc1ccc([N+](=O)[O-])cc1C	inconclusive [inhibitor, single point]	
CC1=NN(c2ccccc2)C(=O)/C1=C/c1c(O)n(-c2ccc(F)cc2)[nH]c1=O		inactive: 12.4%
O=[N+]([O-])c1cc2oc3c(c2c(C=NCc2ccncc2)c1O)CCCC3	inconclusive [inhibitor, single point]	
CCc1ccc(C(c2ccccc2)c2c[nH]c3ccc(C)cc23)s1 (centres undefined)	inconclusive [inhibitor, partial curve]	
COC(=O)c1ccc(/C=C/C(=O)c2cccc(OC)c2)cc1	inconclusive [activator, single point]	
Cc1ccc(-c2nc3cc(NS(=O)(=O)c4ccc(C)cc4)ccc3o2)cc1	inconclusive [inhibitor, partial curve, poor fit]	
Clc1ccccc1CSc1nnc(-c2ccco2)c(-c2ccco2)n1	inconclusive [inhibitor, single point]	
O=c1c2ccccc2nc(/C=C/c2c[nH]c3ccccc23)n1CCO	inconclusive [activator, partial curve]	
Cc1ccc(C(=O)N2CCN(c3cc(=O)[nH]nc3-c3ccccc3)CC2)cc1		inactive: -3.9%
C/C(=N\Nc1ccc(F)cc1F)c1ccc(Br)s1		inactive: 8.41%
COc1ccc(-c2nc(SCC(=O)Nc3ccc4c(c3)OCO4)c(-c3ccccc3)[nH]2)cc1	inconclusive [activator, single point]	

Structure (SMILES)	Potency	activity, negative = inhibition
CN(C)c1ccc(/C=C2\CCCCC2=O)cc1		inactive: 8.3%
CC1CCN(c2cc3c(cc2F)c(=O)c(S(=O)(=O)c2ccc(Cl)cc2)cn3C)CC1		inactive: -10.3%
Cc1ccc(C2=NN(C3=NN=C(N)Cc4ncnn43)C(O)(C(F)(F)F)C2)cc1 (centres undefined)		inactive: -11.3%
Cc1ccccc1Cc1n[nH]c(=S)n1N		inactive: 2.81%
Cc1cc2c(cc1C)CSC(c1ccccc1O)SC2	inconclusive [inhibitor, single point]	
Cc1cc(C(=O)N[C@H](c2ccccc2)[C@@]2(C)C[C@@H]2[C@@H](C)C(=O)Nc2ccc3ccccc3c2)no1	inconclusive [inhibitor, single point]	
COc1ccc2[nH]cc(CCNC(=O)Nc3cccc(F)c3)c2c1	inconclusive [activator, partial curve, poor fit]	
CC1=NOC(=O)/C1=C/c1ccc(O)cc1		inactive: 4.12%
O=C(NCCc1ccc(Cl)cc1)c1ccc(Cn2c(=O)[nH]c3ccccc3c2=O)cc1	inconclusive [inhibitor, partial curve]	
COc1cc(-c2nc(-c3ccccc3)c(-c3cc([N+](=O)[O-])ccc3C)[nH]2)cc(OC)c1OC	inconclusive [activator, partial curve]	
Cc1ccc(NC(=O)Nc2nc3ccccc3s2)cc1NC(=O)Nc1nc2ccccc2s1	inconclusive [inhibitor, partial curve, poor fit]	
O=C(CCc1ccc(O)cc1)c1c(O)cc(O)cc1O[C@H]1OC(CO)C(O)C(O)C1O (some centres undefined)		inactive: -1.89%
CCn1c(CCCOc2ccc(Cl)cc2Cl)nnc1SCC(=O)Nc1cccc(F)c1	inconclusive [inhibitor, full curve]	
Cc1ccc2c(n1)sc1c(N)ncnc12	inconclusive [inhibitor, single point]	
O=C(c1noc2c1CCc1ccccc1-2)N1CCc2ccccc2C1		inactive: -0.871%
CCOc1cc(CNc2ccc3[nH]c(=O)[nH]c3c2)ccc1OCC(=O)NC(C)(C)C	inconclusive [inhibitor, partial curve]	
COc1cc(-c2ccc(NC(=O)NC3CC3)c(OC)c2)ccc1NC(=O)NC1CC1		inactive: 15%
CCCN1C(=O)/C(=C/c2c(NCCCOCC)nc3c(C)cccn3c2=O)SC1=S	inconclusive [inhibitor, single point]	
COCCOC(=O)c1c(C)oc2c1cc(NS(=O)(=O)c1ccc(Cl)c(C)c1)c1ccccc12		inactive: 2.96%
Cc1c(-c2cccc(NC(=O)c3ccc(F)c(F)c3)c2)nc2ncccn12		inactive: -8.52%
CCn1ccc2cc(OC)ccc2c1=S		inactive: -5.34%
Cc1nn(C)c2c1c(C(F)(F)F)cc(=O)n2C(C)C(=O)NCCc1ccc(Cl)cc1 (centres undefined)		inactive: -5.24%
